In ChEMBL document CHEMBL4888484, “Replenishing the malaria drug discovery pipeline: Screening and hit evaluation of the MMV Hit Generation Library 1 (HGL1) against asexual blood stage Plasmodium falciparum ,using a nano luciferase reporter read-out” (2022):
The whole screen tested about 4,800 compounds, of which about 420 (8.8%) showed an effect of 50% or more. This is one part of the list.

tested on: Plasmodium falciparum; assay: Confirmatory screen in NF54 nanoGlo assay, in single point, at 2uM, 72h; type: functional, Erythrocyte; details: timepoint 72 hour

SMILES | % Inhibition [%]
CCc1ccc(/C=C/c2c[nH]c3ccccc23)[n+](CC)c1 | 89
CCn1cc(-c2nc(-c3ccccc3C)no2)c(=O)c2cc(F)c(N3CCOCC3)cc21 | 37
COC(=O)C1C2CCC(C2)C1NC(=O)c1ccncc1 (centres undefined) | -1
Cc1cccc(NC(=O)c2cc(Cl)c[nH]2)n1 | 1
COc1nn(C)cc1C(=O)N1CCC[C@H](Oc2cccnn2)C1 | 1
CCCN1C(=O)c2ccccc2N2C(=O)CC[C@@]12C(=O)Nc1ccccc1 | 91
CCC(=O)Nc1ccc(Oc2c(C)c(C(=O)O)nn2-c2ccccc2CC)c(S(=O)(=O)NCC(C)C)c1 | 5
CCNC(=O)c1csc(COc2ccc3c(c2)[C@H](c2ccc(C)cc2)N(C(=O)CC(C)C)CC3)n1 | 36
CC(=O)N1C(C(=O)O)Cc2c([nH]c3ccccc23)C1c1ccc2c(c1)OCO2 (centres undefined) | 2
O=C(Nc1[nH]c(=O)ncc1F)c1cc(F)c(F)cc1Br | 95
CNC(=O)C(c1ccccc1)C(C(=O)NC)c1cccc2ccccc12 (centres undefined) | -1
C[C@@H](CCc1ccccc1)NC(=O)c1cc2c(Cl)ccc3c2n1CCO3 | 7
CC[C@](O)(C(=O)N(C)Cc1ncon1)c1cccc(Cl)c1 | -11
O=C(NCCCn1cccn1)[C@H]1CN(S(=O)(=O)c2cccnc2)CC12CCCCC2 | 2
COc1c(O)ccc2c(=O)c3c(O)cc(O)c(OC)c3n(C)c12 | -3
CCn1c(=O)c(N2CCC[C@H](C(=O)NCc3cccc(C)c3)C2)nc2ccccc21 | 0
Cc1cc(NCCc2nccn2C)ncn1 | -15
c1cn(C[C@@H]2CCCN2c2nc(C3CCCC3)ns2)nn1 | -11
COC1CCCCC1NC(=O)c1ccc(-c2noc(C(F)(F)F)n2)cc1 (centres undefined) | -1
CC[C@@]1(C)CCCN(C(=O)Cc2c(C)noc2Cl)C1 | 84
Cc1cnc(NC(=O)C2CCC(=O)N(C)C2c2cccc(F)c2)s1 (centres undefined) | -5
CC1CCC(NC(=O)N2CCC(OC[C@H]3CCCO3)CC2)CC1 (some centres undefined) | -7

SMILES | % Inhibition [%]
CCOC(=O)c1nc(-c2cccnc2)cs1 | -12
Cn1c(C(=O)N2CC[C@H](N)C2)ccc1-c1cccc(Br)c1 | 0
O=C(Nc1cccc(C(F)(F)F)c1)C(Oc1ccccc1)Oc1ccccc1 | -20
COc1ccc(CNC(=O)Nc2ccc3c(c2)N(C(=O)c2ccccc2)CCC3)cc1OC | 25
O=S(=O)(c1ccc2nncn2c1)N(Cc1cccc(Cl)c1)c1ccccc1 | 1
CC(C)(C)N(Cc1ccc(F)cc1)C(=O)[C@H]1CCOC1 | -1
C#CCN1C(=O)N[C@@](CC)(C(C)C)C1=O | 10
COc1ccccc1CNC(=O)c1nnn(-c2ccc3noc(-c4ccc(Cl)cc4)c3c2)c1C | -1
Cc1cccc(CNC(=O)c2n[nH]c3c2CN(C(=O)c2ccoc2)CC3)c1 | -8
O=C(O)c1ccc(NS(=O)(=O)c2cc(Cl)ccc2OC[C@H]2CCCCO2)cc1 | 5
FC(F)(F)C1CN(c2nc(-c3ccccn3)nc3c2CCC3)C1 | 67
O=C1CN(S(=O)(=O)c2ccc(C(F)(F)F)cc2)C2(CCCCC2)CN1CC1CC1 | -10
CC(C)(C)n1nc2nc(NCCN3CCCCC3)nc(-c3ccc(F)c(Cl)c3)c2c1N | 62
Cc1ccc(Nc2nc(C)c(C(=O)NCc3cccc(Br)c3)s2)c(C)c1 | -13
COc1cccc(COc2cccc(Cl)c2CNc2nnc(C(F)(F)F)o2)c1 | -1
O=C(NCCOc1ccccc1)c1ccc(C(=O)NCCOc2ccccc2)s1 | 7
CC1=C2CC(C3(N)CC4(CC4)NC3=O)C(O)CC2(C)CCC1 (centres undefined) | 1
Fc1cccc(F)c1-n1c(CN2CCCCC2)csc1=S | -3
CCN(CCC1CCN(C(=O)Nc2ccc(OC3CCOCC3)c(C)c2)CC1)CC(C)C | -3
CC(C)c1ccc(Oc2cnn(-c3cccc(Cl)c3)c(=O)c2Nc2cccc(C(=O)NC3CC3)c2)cc1 | 48
CC1(C)Oc2ccc(NC(=O)C3CCCCC3)cc2NC1=O | 0
CCOC(=O)Cc1csc(NC(=O)Cc2c[nH]c3ccccc23)n1 | -6

SMILES | % Inhibition [%]
Cc1cc(C(=O)N2CC3CCCC3C2C(N)=O)c2c(C)noc2n1 (centres undefined) | -6
CN(C)CC(O)COc1ccc(S(=O)(=O)c2ccc(OCC(O)CN(C)C)c(Cl)c2)cc1Cl (centres undefined) | 45
Cc1cc(Br)ccc1CN(C)S(C)(=O)=O | -9
O=C(CCCc1ccc2c(c1)CC(=O)N2)Nc1ccc2c(c1)C(=O)NC2 | -6
CCn1c(=O)c(N2CCN(C(=O)Nc3ccccc3Cl)CC2)nc2ccccc21 | -6
Cc1cc(F)ccc1-n1ccc(C(=O)N(C[C@H]2CCOC2)C2CC2)n1 | -7
CCN(CC)c1ccc(NS(=O)(=O)c2cc(S(=O)(=O)c3ccc(Cl)c(S(=O)(=O)Nc4ccc(N(CC)CC)cc4)c3)ccc2Cl)cc1 | 0
Cc1ccc(-c2ccnn2C)cc1NC(=O)c1cscn1 | 1
CC1=N[C@H](N2CCN(c3ccccc3)CC2)NC(O)=C1 | -12
C[C@@H](C1CC1)N(C)S(=O)(=O)Cc1cc(Cl)cc(Cl)c1 | -3
CCOn1c(-c2ccc(F)cc2)nc2c1OC=NN2OCc1ccccc1 | 0
CCNC(=O)N[C@H]1CO[C@H]2[C@@H]1OC[C@@H]2Nc1nccc(-c2ccc(-c3ccccc3)cc2)n1 | 2
COc1ccc(C(=O)Nc2c(C)nc3ncnn3c2O)cc1 | -2
O=C(c1ccc2c(c1)OCCCO2)N1CCCCC1 | -3
CCCCNC(=O)Cc1noc([C@@H]2Cc3ccccc3O2)n1 | -11
Cc1c(C2CC2)n[nH]c1NC(=O)C1CC1c1ccccc1 (centres undefined) | -1
CCOC(=O)C(C)NC(=O)C(C)NC(=O)c1ccc(F)c(C#N)c1 (centres undefined) | -4
O=C(Nc1nc(Cc2ccccc2)cs1)C1CCOCC1 | 2
NC(=O)C1(CNC(=O)c2cccn3c(=O)[nH]nc23)CCCC1 | -6
CN(CCCNC(=O)C(=O)Nc1ccn(C)n1)c1cccc(F)c1 | 0
